From PubChem BioAssay AID463173 (ICCB-Longwood Screening Facility, Harvard Medical School, 2010)
Among all 52,000 compounds or so, about 1,700 (3.3%) were called active. No stated cut-off is given here; in the data, active means survival mostly below about 52% (no sharp cut-off); inactive means mostly above about 56%. Some of the results follow.

The compounds below were run on Wild type (assay: growth inhibition of S. aureus wild type versus tarO mutant, primary screen, teichoic acid synthesis inhibitors, RN4220, OD600 (AID 463173)). Settings: S. aureus RN4220 wild type/DeltatarO growth, OD600, 18 h, active compounds read low, screened at 18.75 µg/mL (by protocol).

| SMILES | survival |
| --- | --- |
| O=C(CC1Nc2cccc3cccc(c23)NC1=O)Nc1ccc(F)cc1 (configuration not stated) | inactive: 112% |
| COc1cccc(N2CCN(Cc3cc(=O)oc4cc(C)ccc34)CC2)c1 | inactive: 77% |
| Cc1ccc2c(c1)C(c1ccc(F)cc1)N(C(=O)c1cccc(C(F)(F)F)c1)CC(=O)N2 (configuration not stated) | inactive: 79% |
| CC(C)OCCCN1C(=O)c2[nH]nc(-c3ccccc3O)c2C1c1cccc(OCc2ccccc2)c1 (configuration not stated) | inactive: 78% |
| N#Cc1cccc(NC(=O)CCNS(=O)(=O)c2ccc3c(c2)CCN3C(=O)C2CC2)c1 | inactive: 105% |
| Cc1c2cnn(CC(=O)N3CCN(c4ccc(F)cc4)CC3)c(=O)c2c(C)n1Cc1ccccc1F | inactive: 92% |
| O=C(Nc1nnc(S(=O)(=O)N2CCc3ccccc32)s1)c1ccccc1Cl | inactive: 23% |
| CCOC(=O)c1c(C)[nH]c(CCC(=O)NCCCN2CCN(c3ccccc3F)CC2)c1C | inactive: 68% |
| COc1ccc(-c2nc(Cn3c(=O)cc(C)c4c(C)nn(-c5ccccc5)c43)c(C)o2)c(OC)c1 | inactive: 73% |
| CN(C)c1ccc(CNC(=O)Cn2ccc3cc(S(=O)(=O)N4CCCCCC4)ccc32)cc1 | inactive: 85% |
| Cc1cc(C)cc(-n2ccnc2SCC(=O)Nc2nc3ccc(C)cc3s2)c1 | inactive: 64% |
| CCC1CN(C(=O)N2CCC(C(=O)NCCC3=CCCCC3)CC2)c2cc(C)ccc2O1 (configuration not stated) | inactive: 89% |
| COc1ccc2cc(CN(Cc3cccnc3)Cc3nnnn3Cc3ccc(F)cc3)c(=O)[nH]c2c1 | inactive: 106% |
| Cc1cccc(OCC(=O)Nc2ccc(-c3nc4cc(C)ccc4o3)c(O)c2)c1 | inactive: 70% |
| COc1ccc(S(=O)(=O)N(CC(=O)N(C)Cc2ccccc2)c2ccc(Cl)cc2)cc1 | inactive: 77% |
| Cc1ccc(OCC(=O)Nc2ccc(Cl)c(-c3nc4ccccc4[nH]3)c2)cc1C | inactive: 66% |
| CCn1cc2nc(SCc3ccc(C)cc3)n(CCc3ccccc3)c(=O)c2n1 | inactive: 68% |
| COc1ccc(NC(=O)CSc2nnc(NC(=O)Nc3ccccc3)s2)c(OC)c1 | inactive: 60% |
| CCc1ccc(NC(=O)CSc2nc3ccccc3nc2Cc2ccccc2OC)cc1 | inactive: 82% |
| C=CCNc1ccc(C(=O)O)cc1 | inactive: 109% |
| CCOC(=O)c1ccc(NC(=O)c2c(NCc3sccc3C)sc3c2CCCCC3)cc1 | inactive: 85% |
| O=C(NC1CCCCC1)c1c[nH]c2ccc(S(=O)(=O)Nc3ccccc3F)cc2c1=O | inactive: 102% |

| SMILES | survival |
| --- | --- |
| Cc1cc(C)cc(NC(=O)N2CCN3CCCCC3C2)c1 (configuration not stated) | inactive: 135% |
| COc1ccc(Cn2c(=O)[nH]c3cc(C(=O)N4CCN(c5cccc(OC)c5)CC4)ccc3c2=O)cc1 | inactive: 63% |
| CC1CCCN(c2cc3c(cc2F)c(=O)c(S(=O)(=O)c2cccc(Cl)c2)cn3C)C1 (configuration not stated) | inactive: 63% |
| Cn1cc(C(=O)NCc2ccc(Cl)cc2)c(=O)c2cc(S(=O)(=O)N3CCCCCC3)ccc21 | inactive: 73% |
| COc1ccc(CNC(=O)CSc2nc3cc4c(cc3cc2C#N)OCCO4)cc1 | inactive: 100% |
| COc1ccccc1-c1nnc(SCC(=O)OC(C)C)n1-c1ccccc1 | inactive: 115% |
| COc1cccc(C(=O)Nc2cc3cc(OC)ccc3oc2=O)c1 | inactive: 78% |
| Cc1cc(C)c2c(n1)SCCN2C(=O)Nc1ccc(C(=O)Nc2cc(Cl)ccc2C)cc1 | inactive: 99% |
| Cc1cc(C(=O)NCCc2ccc(Cl)cc2)c2c(C)nn(-c3cccc(F)c3)c2n1 | inactive: 76% |
| O=C1C2C(C(=O)N1/N=C/c1ccc(N3CCCCC3)o1)C1C=CC2C12CC2 (configuration not stated) | inactive: 103% |
| COc1ccc(N(CC(=O)NCCc2cccc(C)c2)S(=O)(=O)c2c(C)noc2C)cc1 | inactive: 81% |
| O=C(Nc1ccccc1)c1ccc2c(c1)OCCO2 | inactive: 110% |
| COC(=O)c1cc2sc(Cl)cc2n1Cc1nc(-c2ccc(OC)cc2)oc1C | inactive: 47% |
| O=C(Nc1nnc(S(=O)(=O)N2CCN(c3ccc(F)cc3)CC2)s1)c1ccc(Cl)cc1 | inactive: 80% |
| COc1ccc(C)cc1NC(=O)C(=O)NCC1(c2ccccc2)CCCC1 | inactive: 94% |
| Cc1ccc(Cl)cc1NC(=O)COCc1cc(-c2ccco2)on1 | inactive: 77% |
| CCCCSCCCNC(=O)CN1C(=O)COc2ccc(S(=O)(=O)N3CCC(C)CC3)cc21 | inactive: 122% |
| Cn1cc(C(F)(F)F)ccc1=S | inactive: 112% |
| CC(C)(C)c1ccc(C2NC(=O)c3n[nH]c(-c4cccs4)c32)cc1 (configuration not stated) | inactive: 93% |
| Cc1ccc(C(=O)Nc2ccc(C(=O)OCc3cc(=O)n4ccsc4n3)cc2)cc1 | inactive: 75% |
| Cc1ccc(Cn2cc(CCC(=O)NCc3ccccc3F)c3ccccc32)cc1 | inactive: 83% |
| CCN(CC)S(=O)(=O)c1ccc2c(c1)N(CC(=O)N(C)Cc1ccccc1)C(=O)CO2 | inactive: 85% |

| SMILES | survival |
| --- | --- |
| Cc1ccc(NC(=O)Cn2c(CCC(=O)O)ccc2-c2ccc(Cl)cc2)cc1 | inactive: 86% |
| COc1ccccc1N1CCN(c2ncnc3c2nc2n3CCCC2)CC1 | inactive: 71% |
| COC(=O)c1ccc(NC(=O)Cn2nc(C(=O)Nc3ccc(C)cc3)ccc2=O)cc1 | inactive: 85% |
| COc1ccc(-c2[nH]c3c(c2-c2c(-n4cccc4)n(C)c(=O)n(C)c2=O)c(=O)n(C)c(=O)n3C)cc1 | inactive: 86% |
| O=C(CNC(=O)c1ccc(Cl)cc1)OCc1cc(=O)n2ccsc2n1 | inactive: 71% |
| COc1ccc(O)c(C2Nc3ccccc3-n3c(-c4ccccc4)c4c(=O)n(C)c(=O)n(C)c4c32)c1 (configuration not stated) | active: -6% |
| c1cc2c3c(cccc3c1)NC1(CCCCC1)N2 | inactive: 125% |
| COc1cccc(CNC(=O)C(NS(=O)(=O)c2ccc3c(c2)oc(=O)n3C)C(C)C)c1 (configuration not stated) | inactive: 76% |
| Cc1cccc(NC(=O)CSc2nc(C3CCCC3)nc3c2c(=O)n(C)c(=O)n3C)c1C | inactive: 93% |
| Cc1nnsc1C(=O)Oc1ccc(C(C)C)cc1 | inactive: 79% |
| Cc1c(C(=O)OCC2CCCCC2)[nH]c2c1C(=O)CC(c1ccc(Cl)cc1)C2 (configuration not stated) | inactive: 86% |
| COc1ccc(S(=O)(=O)Nc2cccc(-c3ccc(N4CCCCCC4)nn3)c2)cc1 | inactive: 68% |
| NS(=O)(=O)c1ccc(Nc2nc3nonc3nc2Nc2ccc(S(N)(=O)=O)cc2)cc1 | inactive: 109% |
| CCn1c(=O)cc(OCC(=O)NCc2ccccc2Cl)c2ccccc21 | inactive: 63% |
| COc1ccc2c(c1)-c1nc(NC(=O)c3ccccc3F)sc1CC2 | active: -1% |
| CCN(CC)C(=O)c1sc2c(c1C)c(=O)n(-c1ccc(C)c(C)c1)c(=O)n2Cc1cc(=O)n2c(C)cccc2n1 | inactive: 22% |
| CCn1c(-c2ccccc2)n[nH]c1=S | inactive: 108% |
| O=C(NCC1CCCO1)c1cc2ccccc2oc1=O (configuration not stated) | inactive: 94% |
| COc1ccc(CNC(=O)CSc2ncc3c(n2)-c2cc(Cl)ccc2N(Cc2ccccc2)S3(=O)=O)cc1OC | inactive: 66% |
| Cc1nnc(SCc2nc(-c3ccc(Cl)cc3)no2)n1-c1ccc(F)cc1 | inactive: 100% |
| COc1ccccc1NC(=O)Cn1c(=O)n(CCc2ccccc2)c(=O)c2c3c(sc21)CN(C(C)=O)CC3 | inactive: 76% |
| O=C(c1ccccc1)n1nc(-c2ccco2)nc1NCc1cccs1 | inactive: 90% |

| SMILES | survival |
| --- | --- |
| Cc1ccc(Cn2cc(/C=C(/C#N)C(=O)Nc3cccc(Cl)c3)c3ccccc32)cc1 | inactive: 89% |
| COc1cc2ccccc2cc1C(=O)Nc1cc(-c2nc3ccccc3o2)ccc1C | inactive: 126% |
| Cc1cccc(N(C)C(=O)CN(C)S(=O)(=O)c2ccc3[nH]c4c(c3c2)CCCC4)c1 | inactive: 72% |
| O=c1cc(-c2ccccc2)nc2cc(-c3ccc(F)cc3)[nH]n12 | inactive: 148% |
| Cc1ccc(S(=O)(=O)N2CCc3cc(C(=O)Nc4ccc(C)c(C)c4)ccc32)cc1 | inactive: 81% |
| CCOc1ccc(CN(Cc2ccco2)C(c2ccc(C(F)(F)F)cc2)c2nnnn2CCOC)cc1 (configuration not stated) | inactive: 128% |
| CCC(=O)OCc1cnc(C)c2oc(=O)c(C(=O)Nc3ccccc3C(F)(F)F)cc12 | inactive: 136% |
| CCCCNc1nc(Oc2ccc(OCCC)nn2)nc(N(C)C)n1 | inactive: 87% |
| COc1ccc(CC(=O)Nc2c(C(=O)Nc3ccc(F)cc3)oc3ccccc23)cc1OC | inactive: 95% |
| COc1ccc(OC)c(CCNC(=O)CN2C(=O)COc3ccc(S(=O)(=O)N4CCC(C)CC4)cc32)c1 | inactive: 72% |
| COc1ccc(-c2nc3ccccc3o2)cc1NC(=O)CSc1ccc(Cl)cc1 | inactive: 73% |
| O=C(CCSCc1ccccc1F)N1CCN(c2ccc(Cl)cc2)CC1 | inactive: 55% |
| Cc1nn(-c2ccc(N3CCCC3)nn2)c(C)c1CCC(=O)NCc1ccccc1F | inactive: 85% |
| CCC1CCCCN1CCCNC(=O)c1c(O)nc2c(C)cccn2c1=O (configuration not stated) | inactive: 88% |
| CCCN1CCN(CCNC(=O)Nc2cc(C)ccc2OC)CC1 | inactive: 87% |
| COc1cc2c(C(=O)Nc3ccc(C)cc3Br)cn(C)c(=O)c2cc1OC | inactive: 124% |
| CCOC(=O)c1ccc(NC2=CC(c3ccc(O)c(OCC)c3)N(c3ccc(C(=O)OCC)cc3)C2=O)cc1 (configuration not stated) | inactive: 68% |
| CCOc1ccccc1NC(=O)c1sc2nc(-c3ccc(OC)cc3)ccc2c1N | inactive: 81% |
| COc1ccc(-n2c(/C=C/c3cccc4ccccc34)nc3ccccc3c2=O)cc1Cl | inactive: 83% |
| O=C(Cc1ccc(F)cc1)N1CCC(c2nc3c(nnn3Cc3ccc(F)cc3)c(=O)[nH]2)CC1 | inactive: 99% |
| N#Cc1ccccc1Cn1c(=O)n(CCCCC(=O)NCc2ccc3c(c2)OCO3)c(=O)c2ccccc21 | inactive: 113% |
